Measurements from a compilation of properties of binary mixtures (doi:10.1016/j.jtice.2024.105468).
The densities may have been worked out from excess volumes.

Test: xn = mol fraction of the nth substance listed
Settings: 100 kPa

## COCCO + CCCC[n+]1ccn(C)c1.[Br-]
298.15 K, x2 = 0
  mass density: 960.2 kg/m3
303.15 K, x2 = 0
  mass density: 955.6 kg/m3
308.15 K, x2 = 0
  mass density: 952.6 kg/m3
313.15 K, x2 = 0
  mass density: 946.7 kg/m3

## CCCC[n+]1ccn(C)c1.[Br-] + COCCO
298.15 K, x1 = 0.1002
  mass density: 1028 kg/m3
298.15 K, x1 = 0.1999
  mass density: 1082.3 kg/m3
298.15 K, x1 = 0.3002
  mass density: 1126.7 kg/m3
298.15 K, x1 = 0.4
  mass density: 1163.4 kg/m3
298.15 K, x1 = 0.5
  mass density: 1194.2 kg/m3
298.15 K, x1 = 0.5999
  mass density: 1220.1 kg/m3
298.15 K, x1 = 0.8
  mass density: 1261.2 kg/m3
298.15 K, x1 = 0.8975
  mass density: 1277.3 kg/m3
298.15 K, x1 = 1
  mass density: 1292.3 kg/m3
303.15 K, x1 = 0.1002
  mass density: 1023.7 kg/m3
303.15 K, x1 = 0.1999
  mass density: 1078.2 kg/m3
303.15 K, x1 = 0.3002
  mass density: 1122.6 kg/m3
303.15 K, x1 = 0.4
  mass density: 1159.3 kg/m3
303.15 K, x1 = 0.5999
  mass density: 1216 kg/m3
303.15 K, x1 = 0.7002
  mass density: 1238.1 kg/m3
303.15 K, x1 = 0.8
  mass density: 1257.2 kg/m3
303.15 K, x1 = 0.8975
  mass density: 1273.3 kg/m3
303.15 K, x1 = 1
  mass density: 1288.1 kg/m3
308.15 K, x1 = 0.1002
  mass density: 1021.2 kg/m3
308.15 K, x1 = 0.1999
  mass density: 1075.4 kg/m3
308.15 K, x1 = 0.3002
  mass density: 1119.8 kg/m3
308.15 K, x1 = 0.5
  mass density: 1187.2 kg/m3
308.15 K, x1 = 0.5999
  mass density: 1213.1 kg/m3
308.15 K, x1 = 0.7002
  mass density: 1235.1 kg/m3
308.15 K, x1 = 0.8
  mass density: 1254.1 kg/m3
308.15 K, x1 = 0.8975
  mass density: 1270.1 kg/m3
308.15 K, x1 = 1
  mass density: 1284.7 kg/m3
313.15 K, x1 = 0.1002
  mass density: 1015.9 kg/m3
313.15 K, x1 = 0.1999
  mass density: 1070.3 kg/m3
313.15 K, x1 = 0.3002
  mass density: 1114.9 kg/m3
313.15 K, x1 = 0.5999
  mass density: 1208.9 kg/m3
313.15 K, x1 = 0.8
  mass density: 1250.2 kg/m3
313.15 K, x1 = 0.8975
  mass density: 1266.3 kg/m3
313.15 K, x1 = 1
  mass density: 1280.9 kg/m3
